# The whole screen tested about 310,000 compounds, of which about 18,000 (5.8%) were called active. Inconclusive means that the source gave no clear call. Such entries were picked first, then a sample of the others. Calls follow the shape of the dose curve; as a rule, active = well fitted inhibition curve with a large enough effect; inconclusive = small, poorly fitted or top-dose-only effect, or another doubt; inactive = no such curve, though single readings can be large or run the other way. Potencies of inconclusive entries are left out as doubtful fits.
# Test: Primary qHTS for delayed death inhibitors of the malarial parasite plastid, 48 hour incubation
# Settings: P. falciparum luciferase growth in erythrocytes; series mostly up to 28.7 µM
# Summary of the method: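 A one-generation exposure of luciferase-tagged malaria parasites in RPMI 1640/Albumax erythrocyte culture, 37 C and 5% CO2. Inhibition is inferred from decreased luminescence after adding detection reagent.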
# Potency is read from the fitted curve at half-maximal effect; tags tell the direction and shape of the fitted curve.
row,Structure (SMILES),Potency
1,CCSc1nc(N)c2c3c(sc2n1)CN(C)CC3,"inconclusive [inhibitor, partial curve]"
2,COC(=O)c1ccc(-n2c(C)cc(C(=O)CSc3ccc(NC(C)=O)cc3)c2C)cc1,"inconclusive [inhibitor, single point]"
3,Cc1nn(-c2ccc(Cl)cc2)c2[nH]c(CCl)cc(=O)c12,"inconclusive [inhibitor, partial curve, poor fit]"
4,CC(Sc1nnc(-c2ccco2)n1C)C(=O)Nc1nccs1 (stereo not given),"inconclusive [inhibitor, single point]"
5,CCCS(=O)(=O)c1nc(S(=O)(=O)c2ccc(C)cc2)c(N2CCC(C)CC2)s1,"inconclusive [inhibitor, full curve]"
6,Cc1ccccc1NC(=O)Cc1nc(COC(=O)Cc2ccccc2F)cs1,"inconclusive [inhibitor, single point]"
7,Cc1c(C(=O)NCCc2ccccc2)oc2ccc(S(=O)(=O)N3CCOCC3)cc12,"inconclusive [inhibitor, partial curve]"
8,Cc1ccccc1-n1nc(C(=O)O)c(C)c(C#N)c1=O,inactive
9,CC(c1nccs1)N(C)C(=O)CCc1nnc(-c2ccc(-c3ccccc3)cc2)o1 (stereo not given),"inconclusive [inhibitor, single point]"
10,CC(C)c1cccc(C(C)C)c1NC(=O)CN1C(=O)NC2(CCCC2)C1=O,inactive
11,CC(C)N(C)S(=O)(=O)c1ccc(NC(=O)CSC(=S)N2CCCC2)cc1,"inconclusive [inhibitor, single point]"
12,NC(N)=Nc1cc2ccccc2c2ccccc12,"inconclusive [inhibitor, single point]"
13,O=C(CN1C(=O)/C(=C\c2ccccc2Cl)Sc2ccccc21)NCCCN1CCOCC1,"inconclusive [inhibitor, single point]"
14,Cc1ccc(OCc2cc(C(=O)NC3CCOC3)no2)cc1C (stereo not given),inactive
15,C=CCN(c1ccc(F)cc1)S(=O)(=O)c1cc(C(=O)OCC(=O)N(C)C2CCS(=O)(=O)C2)ccc1Cl (stereo not given),"inconclusive [inhibitor, partial curve, poor fit]"
16,Cn1ccnc1C(=O)c1cccc(Br)c1,inactive
17,O=C(Cc1ccccc1)NNC(=O)C1CCCC1,"inconclusive [inhibitor, partial curve, poor fit]"
18,CC(=O)Oc1cc2c(cc1Cl)C(c1cccs1)CC1(CC(C)(C)NC(=S)N1)O2 (stereo not given),"inconclusive [inhibitor, partial curve, poor fit]"
19,CCOc1ccccc1NC(=O)Cn1nc(-c2ccco2)ccc1=O,"inconclusive [inhibitor, single point]"
20,CCCC(=O)Nc1nn(C)c2nc3c(C)cccc3cc12,"inconclusive [inhibitor, single point]"
21,CCCCn1c(N)c(N(CC(C)C)C(=O)COC(=O)C2(c3ccccc3)CC2)c(=O)[nH]c1=O,"inconclusive [inhibitor, single point]"
22,CCC1CCCCN1CCCNC(=O)c1ccc2c(c1)NC(=O)CS2 (stereo not given),"inconclusive [inhibitor, single point]"
23,O=C(Cc1c[nH]c2ccccc12)NC1(C(=O)NC2CCCC2)CCCCC1,inactive

row,Structure (SMILES),Potency
1,COc1ccc(-c2nn(-c3ccccc3)cc2/C=C/C(=O)N2CCN(c3ccccn3)CC2)cc1,"inconclusive [inhibitor, partial curve]"
2,CC(=O)c1ccc(N2CCN(CC(=O)NC(=O)NCc3ccccc3)CC2)cc1,inactive
3,Cn1cccc1Cc1nnc(SCC(=O)Nc2cccc(Cl)c2)n1-c1ccc(F)cc1,"inconclusive [inhibitor, single point]"
4,CCOC(=O)C1CCN(C2CCN(C(=O)c3oc4c(C)c(C)ccc4c3C)CC2)CC1,active: 13.1 µM
5,CCc1ccc(NC(=O)CSc2nnc(Cc3cccn3C)n2-c2ccc(F)cc2)cc1,active: 10.4 µM
6,COc1ccc(N(CC(=O)Nc2cc(OC)c(OC)cc2C(=O)O)S(=O)(=O)c2c(C)noc2C)cc1,inactive
7,O=C(Nc1ccccc1F)c1ccc(O)c2ncccc12,active: 4.15 µM
8,Cc1cccc(NC(=O)c2cccc(N3C(=O)C4C5C=CC(C6CC56)C4C3=O)c2)c1 (stereo not given),inactive
9,CC(=O)C1=C(C)NC(SCC(=O)Nc2nc3ccccc3s2)=C(C#N)C1c1ccc(Cl)cc1 (stereo not given),active: 7.38 µM
10,Cc1cc(C)n(C(=O)CNC(=O)c2ccccc2F)n1,inactive
11,O=C(CCl)NNC(=O)c1c(O)c2ccccc2[nH]c1=O,"inconclusive [inhibitor, partial curve, poor fit]"
12,COc1ccc(CSc2nc(C)cc(=O)[nH]2)cc1,inactive
13,CC(=O)c1cccc(-n2nnnc2SCC(=O)Nc2ccccc2N2CCCCC2)c1,"inconclusive [inhibitor, single point]"
14,O=c1nc(N2CCCC2)nc(Nc2ccccc2)[nH]1,inactive
15,COc1ccc(OC)c(NC(=O)c2cc(-c3cc(C)ccc3O)n[nH]2)c1,"inconclusive [inhibitor, single point]"
16,Cc1cc(C)n2nc(Sc3ncccc3[N+](=O)[O-])nc2n1,"inconclusive [inhibitor, partial curve, poor fit]"
17,CCn1c(CNc2ccc(Cl)cc2)nnc1SCCN1CCCCC1,"inconclusive [inhibitor, partial curve, poor fit]"
18,CCc1ccc(NC(=O)Cc2c(C(=O)O)n(C)c3ccccc23)cc1,inactive
19,C=CCOc1c(CNC2CCCC2)cc(Cl)cc1OC,"inconclusive [inhibitor, partial curve, poor fit]"
20,O=C(O)CSCC(=O)N1CCCN(c2nc3ccc(Cl)cc3s2)CC1,inactive
21,O=C(Cn1c2[n+](c3ccc(C(F)(F)F)cc31)CCCCC2)Nc1ccccc1,"inconclusive [inhibitor, full curve]"
22,CCc1cc(=O)oc2c(CNCc3ccc(OC)cc3OC)c(O)c(Cl)cc12,"inconclusive [inhibitor, single point]"

# Source: PubChem BioAssay AID504832 (National Center for Advancing Translational Sciences (NCATS), 2011)
